From the antibiotic and cytotoxicity screens of Wong et al. (2023)
The list shows a part of the results.

Test system: HSkMC (human skeletal muscle cells)
Assay: cytotoxicity call (relative viability < 0.9)
Settings: 10 µM

Q: Which cytotoxicity call does the source give for `C[C@@H]1CCCCO[C@H](CN(C)S(=O)(=O)c2ccc(F)cc2)[C@@H](C)CN([C@@H](C)CO)C(=O)c2cc(NS(=O)(=O)c3ccc(Cl)cc3)ccc2O1` here?
A: inactive

Q: Which cytotoxicity call does the source give for `C[C@H](CO)N1C[C@H](C)[C@@H](CN(C)S(C)(=O)=O)Oc2ccc(N(C)C)cc2C1=O` here?
A: inactive

Q: `C[C@@H]1CN([C@H](C)CO)C(=O)c2cccc(NC(=O)c3ccc(-c4nccs4)cc3)c2O[C@H]1CN(C)C(=O)Nc1cccc2ccccc12` was tested. Which cytotoxicity call did it give?
A: inactive

Q: With `Cc1noc(C)c1NC(=O)Nc1ccc2c(c1)C(=O)N([C@@H](C)CO)C[C@H](C)[C@@H](CN(C)Cc1ccc3c(c1)OCO3)OCCCC[C@@H](C)O2` as the compound, how does the cytotoxicity call read?
A: inactive

Q: With `CN(C)Cc1ccc(O)c(CN(C)C)n1` as the compound, how does the cytotoxicity call read?
A: inactive

Q: How did the cytotoxicity call turn out when `COc1ccc(CN(C)C[C@@H]2OCCCC[C@H](C)Oc3ccc(NC(=O)Nc4ccc(C(F)(F)F)cc4)cc3C(=O)N([C@@H](C)CO)C[C@@H]2C)cc1` was run?
A: active

Q: How did the cytotoxicity call turn out when `C[C@@H]1CN([C@H](C)CO)C(=O)Cc2cc(NC(=O)Nc3ccc(F)cc3)ccc2O[C@H]1CN(C)Cc1ccc(Oc2ccccc2)cc1` was run?
A: active

Q: `CC(C)(Sc1cc(C(C)(C)C)c(O)c(C(C)(C)C)c1)Sc1cc(C(C)(C)C)c(OC(=O)CCC(=O)O)c(C(C)(C)C)c1` was tested. Which cytotoxicity call did it give?
A: active

Q: How did the cytotoxicity call turn out when `CC(C)NC(=O)Nc1ccc2c(c1)C(=O)N([C@H](C)CO)C[C@H](C)[C@@H](CN(C)S(=O)(=O)c1ccccc1)O2` was run?
A: inactive

Q: Which cytotoxicity call does the source give for `COCC(=O)Nc1ccc2c(c1)OC[C@H](C)N(C(=O)c1ccccc1F)C[C@@H](C)[C@@H](OC)CN(C)C2=O` here?
A: inactive

Q: `COCCOC(=O)N1C(=O)[C@@]2(c3cc(C#Cc4ccc(OC)cc4)ccc31)[C@H](c1ccc(OCCO)cc1)N1[C@H](c3ccccc3)[C@H](c3ccccc3)OC(=O)[C@H]1[C@@H]2C(=O)N1CCN(c2ncccn2)CC1` was tested. Which cytotoxicity call did it give?
A: inactive
